Source: the supplement of paper PMC4967469
A lower IC50 marks a more sensitive line; a fit beyond the top or the lowest dose is shown as a bound at that dose. AUC, from the same fit, is the share of area under the viability curve across the 256-fold dose range: 1 means no effect, lower means more sensitive. For part of these data: The top dose, if marked as inferred, is not printed in the source and was worked back from the curve model. For part of these data: Where an entry number is given, a second screen of the drug exists; the two often differ.

Tests used:
Assay in all cases: Viability of human cancer cell lines after 72 h of drug (GDSC screen)
[1] = compound: O=C(Nc1ccc(OC(F)(F)F)cc1)c1sccc1NCc1ccnc2ccccc12 [OSI-930]; settings: top dose 10.24 µM
Experimental: (§1)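 Human cancer cell lines in 384-well plates, medium with 10% serum, drug for 72 h over a 256-fold dose range (nine 2-fold or five 4-fold steps up to the top dose). Adherent lines were fixed and stained with the nucleic acid dye Syto60, suspension lines read with resazurin; signal relative to control wells, capped at 0 and 100%. One two-parameter sigmoid per drug and line, fitted in a mixed model over all curves with the slope shared within a line.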

[2] = compound: O=C(Nc1cccc(Nc2ncc(Br)c(NCCc3cnc[nH]3)n2)c1)N1CCCC1 [BX-912]; settings: top dose 10.24 µM; top dose inferred
Experimental: as §1

[3] = compound: O=C(/C=C/c1ccc(CN(CCO)CCc2c[nH]c3ccccc23)cc1)NO [LAQ824]; settings: top dose 1.024 µM; top dose inferred
Experimental: as §1

[4] = compound: CCCC(=O)OCc1ccc(OC(=O)/C=C(C)/C=C/C=C(C)/C=C/C2=C(C)CCCC2(C)C)cc1 [VNLG/124]; settings: top dose 5.12 µM; top dose inferred
Experimental: as §1

[5] = compound: Cc1c(N)nc([C@H](CC(N)=O)NC[C@H](N)C(N)=O)nc1C(=O)N[C@H](C(=O)N[C@H](C)[C@@H](O)[C@H](C)C(=O)N[C@H](C(=O)NCCc1nc(-c2nc(C(=O)NCCC[S+](C)C)cs2)cs1)[C@@H](C)O)[C@@H](OC1OC(CO)C(O)C(O)C1OC1OC(CO)C(O)C(OC(N)=O)C1O)c1cnc[nH]1 [Bleomycin]
Experimental: as §1

[6] = compound: CC/C(=C(\c1ccccc1)c1ccc(OCCN(C)C)cc1)c1ccccc1 [Tamoxifen]; settings: top dose 5 µM
Experimental: as §1

[7] = compound: O=S(=O)(O)c1ccc2cc(N=Nc3cc(S(=O)(=O)O)c4cccnc4c3O)ccc2c1 [NSC-87877]; settings: top dose 16 µM; top dose inferred
Experimental: as §1

[8] = compound: Cc1ccc(NC(=O)c2ccc(CN3CCN(C)CC3)cc2)cc1Nc1nc(-c2cccnc2)cs1 [Masitinib]; settings: top dose 20 µM
Experimental: as §1

[9] = compound: CN(NC(=O)CC(=O)NN(C)C(=S)c1ccccc1)C(=S)c1ccccc1 [Elesclomol]; settings: top dose 0.2 µM; top dose inferred
Experimental: as §1

[10] = top dose 50 µM, screen: GDSC drug entry 1378, top dose inferred
[11] = top dose 64 µM, screen: GDSC drug entry 190

## GCT (soft tissue, adherent)
[1]
  AUC: 0.98
  IC50: > 10.2 µM
[2]
  AUC: 0.928
  IC50: > 10.2 µM
[3]
  AUC: 0.699
  IC50: 0.221 µM
[4]
  AUC: 0.988
  IC50: > 5.12 µM
[5]; [10]
  AUC: 0.083
  IC50: < 0.195 µM
[5]; [11]
  AUC: 0.538
  IC50: 5.03 µM
[6]
  AUC: 0.988
  IC50: > 5 µM
[7]
  AUC: 0.988
  IC50: > 16 µM
[8]
  AUC: 0.922
  IC50: > 20 µM

## H2818 (mesothelioma, adherent)
[1]
  AUC: 0.988
  IC50: > 10.2 µM
[2]
  AUC: 0.963
  IC50: > 10.2 µM
[3]
  AUC: 0.817
  IC50: 0.595 µM
[4]
  AUC: 0.989
  IC50: > 5.12 µM
[5]; [10]
  AUC: 0.586
  IC50: 5.4 µM
[5]; [11]
  AUC: 0.701
  IC50: 14.9 µM
[6]
  AUC: 0.988
  IC50: > 5 µM
[7]
  AUC: 0.989
  IC50: > 16 µM
[8]
  AUC: 0.978
  IC50: > 20 µM

## HCE-4 (oesophagus, adherent)
[1]
  AUC: 0.985
  IC50: > 10.2 µM
[2]
  AUC: 0.96
  IC50: > 10.2 µM
[3]
  AUC: 0.529
  IC50: 0.0761 µM
[4]
  AUC: 0.99
  IC50: > 5.12 µM
[5]; [10]
  AUC: 0.387
  IC50: 1.6 µM
[5]; [11]
  AUC: 0.213
  IC50: 0.677 µM
[6]
  AUC: 0.985
  IC50: > 5 µM
[7]
  AUC: 0.904
  IC50: 15.9 µM
[8]
  AUC: 0.987
  IC50: > 20 µM

## HEL (acute myeloid leukaemia, semi-adherent)
[1]
  AUC: 0.91
  IC50: 10.2 µM
[2]
  AUC: 0.934
  IC50: > 10.2 µM
[3]
  AUC: 0.219
  IC50: 0.0117 µM
[4]
  AUC: 0.938
  IC50: > 5.12 µM
[5]; [10]
  AUC: 0.834
  IC50: 25.3 µM
[5]; [11]
  AUC: 0.675
  IC50: 11.2 µM
[6]
  AUC: 0.989
  IC50: > 5 µM
[7]
  AUC: 0.98
  IC50: > 16 µM
[8]
  AUC: 0.859
  IC50: 12.3 µM

## KOSC-2 (head and neck, adherent)
[1]
  AUC: 0.985
  IC50: > 10.2 µM
[3]
  AUC: 0.462
  IC50: 0.0502 µM
[4]
  AUC: 0.98
  IC50: > 5.12 µM
[5]; [10]
  AUC: 0.287
  IC50: 0.757 µM
[5]; [11]
  AUC: 0.909
  IC50: > 64 µM
[6]
  AUC: 0.982
  IC50: > 5 µM
[7]
  AUC: 0.984
  IC50: > 16 µM
[8]
  AUC: 0.98
  IC50: > 20 µM

## NCI-H1650 (lung adenocarcinoma, adherent)
[5]; [10]
  AUC: 0.687
  IC50: 12.4 µM
[6]
  AUC: 0.967
  IC50: > 5 µM

## NUGC-3 (stomach, adherent)
[1]
  AUC: 0.974
  IC50: > 10.2 µM
[2]
  AUC: 0.96
  IC50: > 10.2 µM
[3]
  AUC: 0.449
  IC50: 0.0456 µM
[4]
  AUC: 0.98
  IC50: > 5.12 µM
[5]; [10]
  AUC: 0.333
  IC50: 1.01 µM
[5]; [11]
  AUC: 0.359
  IC50: 1.55 µM
[6]
  AUC: 0.982
  IC50: > 5 µM
[8]
  AUC: 0.976
  IC50: > 20 µM

## SNU-1040 (large intestine, adherent)
[1]
  AUC: 0.979
  IC50: > 10.2 µM
[2]
  AUC: 0.907
  IC50: > 10.2 µM
[4]
  AUC: 0.956
  IC50: > 5.12 µM
[5]; [10]
  AUC: 0.974
  IC50: > 50 µM
[6]
  AUC: 0.973
  IC50: > 5 µM
[8]
  AUC: 0.868
  IC50: > 20 µM

## SW954 (urogenital system, adherent)
[9]
  AUC: 0.556
  IC50: 0.0178 µM
[1]
  AUC: 0.956
  IC50: > 10.2 µM
[2]
  AUC: 0.493
  IC50: 0.613 µM
[3]
  AUC: 0.282
  IC50: 0.0153 µM
[4]
  AUC: 0.969
  IC50: > 5.12 µM
[5]; [10]
  AUC: 0.141
  IC50: 0.232 µM
[5]; [11]
  AUC: 0.072
  IC50: < 0.25 µM
[7]
  AUC: 0.916
  IC50: > 16 µM
[8]
  AUC: 0.874
  IC50: 19.9 µM

## SW1116 (large intestine, adherent)
[1]
  AUC: 0.985
  IC50: > 10.2 µM
[2]
  AUC: 0.981
  IC50: > 10.2 µM
[4]
  AUC: 0.982
  IC50: > 5.12 µM
[5]; [10]
  AUC: 0.898
  IC50: > 50 µM
[6]
  AUC: 0.984
  IC50: > 5 µM
[8]
  AUC: 0.986
  IC50: > 20 µM

## SW1990 (pancreas, adherent)
[9]
  AUC: 0.359
  IC50: 0.00475 µM
[1]
  AUC: 0.973
  IC50: > 10.2 µM
[2]
  AUC: 0.979
  IC50: > 10.2 µM
[3]
  AUC: 0.586
  IC50: 0.115 µM
[4]
  AUC: 0.983
  IC50: > 5.12 µM
[5]; [10]
  AUC: 0.889
  IC50: > 50 µM
[5]; [11]
  AUC: 0.49
  IC50: 3.74 µM
[7]
  AUC: 0.972
  IC50: > 16 µM
[8]
  AUC: 0.977
  IC50: > 20 µM

## T47D (breast, adherent)
[9]
  AUC: 0.537
[1]
  AUC: 0.948
  IC50: > 10.2 µM
[2]
  AUC: 0.927
  IC50: > 10.2 µM
[3]
  AUC: 0.394
  IC50: 0.028 µM
[4]
  AUC: 0.977
  IC50: > 5.12 µM
[5]; [10]
  AUC: 0.866
  IC50: > 50 µM
[5]; [11]
  AUC: 0.876
  IC50: > 64 µM
[7]
  AUC: 0.971
  IC50: > 16 µM
[8]
  AUC: 0.846
  IC50: > 20 µM

## T98G (glioma, adherent)
[9]
  AUC: 0.652
  IC50: 0.0318 µM
[1]
  AUC: 0.982
  IC50: > 10.2 µM
[2]
  AUC: 0.965
  IC50: > 10.2 µM
[3]
  AUC: 0.784
  IC50: 0.399 µM
[4]
  AUC: 0.964
  IC50: > 5.12 µM
[5]; [10]
  AUC: 0.258
  IC50: 0.676 µM
[5]; [11]
  AUC: 0.799
  IC50: 28.1 µM
[7]
  AUC: 0.977
  IC50: > 16 µM
[8]
  AUC: 0.961
  IC50: > 20 µM

## U251 (glioma, adherent)
[9]
  AUC: 0.47
  IC50: 0.0104 µM
[1]
  AUC: 0.933
  IC50: > 10.2 µM
[2]
  AUC: 0.805
  IC50: 4.87 µM
[3]
  AUC: 0.568
  IC50: 0.097 µM
[4]
  AUC: 0.985
  IC50: > 5.12 µM
[5]; [10]
  AUC: 0.22
  IC50: 0.498 µM
[5]; [11]
  AUC: 0.512
  IC50: 4.31 µM
[7]
  AUC: 0.986
  IC50: > 16 µM
[8]
  AUC: 0.853
  IC50: 14.5 µM

## U-118-MG (glioma, adherent)
[9]
  AUC: 0.949
  IC50: > 0.2 µM
[1]
  AUC: 0.952
  IC50: > 10.2 µM
[2]
  AUC: 0.983
  IC50: > 10.2 µM
[3]
  AUC: 0.639
  IC50: 0.165 µM
[4]
  AUC: 0.981
  IC50: > 5.12 µM
[5]; [10]
  AUC: 0.584
  IC50: 5.51 µM
[5]; [11]
  AUC: 0.808
  IC50: 39.6 µM
[7]
  AUC: 0.986
  IC50: > 16 µM
[8]
  AUC: 0.937
  IC50: > 20 µM

## VMRC-RCW (kidney, adherent)
[9]
  AUC: 0.75
  IC50: 0.0611 µM
[1]
  AUC: 0.989
  IC50: > 10.2 µM
[2]
  AUC: 0.979
  IC50: > 10.2 µM
[3]
  AUC: 0.357
  IC50: 0.0265 µM
[4]
  AUC: 0.984
  IC50: > 5.12 µM
[5]; [11]
  AUC: 0.741
  IC50: 18.4 µM
[7]
  AUC: 0.981
  IC50: > 16 µM
[8]
  AUC: 0.922
  IC50: > 20 µM
